Experimental data published in article PMC4336329 (PLoS ONE, 2015).
The campaign covered roughly 310,000 compounds. About 2,200 (0.71%) showed an effect of 50% or more. The effect is printed as a negative number. The list shows a part of the results.

Biological target: human ether-à-go-go-related gene (hERG) potassium channel (human, UniProt Q12809)
Assay: primary screen, population patch clamp on CHO cells stably expressing hERG

Chain of human ether-à-go-go-related gene (hERG) potassium channel (Q12809 whole entry, looked up): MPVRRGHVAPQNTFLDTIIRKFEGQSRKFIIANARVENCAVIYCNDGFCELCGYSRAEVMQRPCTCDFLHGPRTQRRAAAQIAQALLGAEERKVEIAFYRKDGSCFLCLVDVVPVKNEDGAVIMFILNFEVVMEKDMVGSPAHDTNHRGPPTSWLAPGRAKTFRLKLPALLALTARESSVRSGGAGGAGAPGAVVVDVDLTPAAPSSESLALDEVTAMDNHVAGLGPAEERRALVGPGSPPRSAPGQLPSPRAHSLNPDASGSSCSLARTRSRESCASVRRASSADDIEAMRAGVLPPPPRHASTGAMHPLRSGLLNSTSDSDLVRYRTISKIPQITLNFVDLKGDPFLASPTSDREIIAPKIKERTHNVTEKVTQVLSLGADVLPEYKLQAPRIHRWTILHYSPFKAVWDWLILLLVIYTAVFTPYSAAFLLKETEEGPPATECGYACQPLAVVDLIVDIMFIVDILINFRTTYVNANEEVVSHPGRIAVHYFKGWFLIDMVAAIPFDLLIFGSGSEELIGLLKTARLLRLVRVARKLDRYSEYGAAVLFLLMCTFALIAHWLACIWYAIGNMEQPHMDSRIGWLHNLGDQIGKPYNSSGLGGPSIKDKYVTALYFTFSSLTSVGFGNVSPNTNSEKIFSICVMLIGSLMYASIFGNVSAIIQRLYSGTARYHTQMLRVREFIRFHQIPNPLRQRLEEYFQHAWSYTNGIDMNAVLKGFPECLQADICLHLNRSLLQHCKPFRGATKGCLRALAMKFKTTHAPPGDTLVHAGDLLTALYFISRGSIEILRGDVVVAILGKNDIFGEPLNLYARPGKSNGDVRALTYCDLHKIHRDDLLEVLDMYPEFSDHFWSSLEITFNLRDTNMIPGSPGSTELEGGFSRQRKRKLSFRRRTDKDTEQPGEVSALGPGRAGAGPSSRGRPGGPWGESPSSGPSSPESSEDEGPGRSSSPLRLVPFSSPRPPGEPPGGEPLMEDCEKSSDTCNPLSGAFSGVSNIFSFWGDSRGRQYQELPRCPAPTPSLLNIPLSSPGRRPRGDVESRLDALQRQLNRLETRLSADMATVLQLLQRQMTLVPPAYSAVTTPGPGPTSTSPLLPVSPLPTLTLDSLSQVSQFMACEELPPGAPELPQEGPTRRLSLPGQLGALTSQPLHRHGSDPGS

Row | SMILES | hERG current change (%, negative = inhibition) at 1uM [%]
1 | CCC1Oc2ccccc2C(=O)N(CC(=O)c2ccc3c(c2)OCCO3)C1=O (centres unmarked) | 15.6
2 | O=C1C2C3CCCC3=C3CCCC3C2C(=O)N1c1ccccc1 (centres unmarked) | 2.04
3 | CC(=O)c1ccc(NC(=O)COC(=O)c2c[nH]c3ccccc23)cc1 | 14.4
4 | C=CCNC(=O)COC(=O)c1ccccc1C(=O)N(C)C1CCCCC1 | 9.53
5 | CCC(C)NCCCCOc1ccc(C)cc1[N+](=O)[O-].O=C(O)C(=O)O (centres unmarked) | 3.62
6 | COc1cccc(/C=N/NC(=O)CSc2nnc(C)n2-c2ccccc2)c1O | 2.78
7 | CSc1nc(O)c(C(c2ccc(O)cc2)c2c(O)nc(SC)[nH]c2=O)c(=O)[nH]1 | 13.3
8 | COC(=O)c1ccc(C(=O)OC)c(NC(=O)CN2CCCCC2)c1 | 12.7
9 | COc1ccc(C2CNC(=O)C2)cc1OC1CCCC1 (centres unmarked) | 1.74
10 | CCc1nnc(NC(=O)CN2CCN(Cc3ccccc3Cl)CC2)s1 | 12.1
11 | C/C(Cn1cnc([N+](=O)[O-])n1)=N\NC(=O)c1ccc(Br)cc1 | -9.12
12 | CCn1c(SCc2ccc(C#N)cc2)nnc1-c1ccc(S(=O)(=O)N2CCCCC2)cc1 | -26.7
13 | COc1ccc(NC(=O)CSc2nc(O)cc(=O)n2-c2ccccc2OC)cc1 | 17
14 | O=C(Nc1ccc(C(=O)NCCCN2CCCCC2)cc1)C1=CSCCO1 | 12.6
15 | CCN(CC)S(=O)(=O)c1cccc(-c2nnc(SCCOc3ccccc3C)o2)c1 | 6.48
16 | C=CCNC(=O)NC(=O)COC(=O)CNS(=O)(=O)c1ccc(F)c(F)c1F | 9.03
17 | O=C(O)CC/C(=N/NC(=O)CNC(=O)Cc1ccc(Cl)cc1)c1ccccc1 | 11.8
18 | CCN(CC)CCCN(C(=O)c1ccccc1C)c1nc(-c2ccc(OC)cc2)cs1 | 7
19 | C[C@H](NC(=O)CCC1CCC(=O)N1)c1ccccc1 (some centres unmarked) | 15
20 | CC(C)Oc1cccc(C(=O)C2CCCN(C(=O)c3cncs3)C2)c1 (centres unmarked) | 4.28
21 | Cc1ccc(C(C)C)c(OCC(=O)Nn2c(=O)[nH]c3ccccc3c2=O)c1 | -1.61
22 | Cc1ccc(C)c(OCc2cc(C(=O)N3CCN(c4cnccn4)CC3)no2)c1 | -23.9
23 | Cc1ccc2c(c1)cc(CN(Cc1ccco1)S(=O)(=O)c1ccccc1)c1nnnn12 | 4.69

Row | SMILES | hERG current change (%, negative = inhibition) at 1uM [%]
24 | CN(C(=O)CC1C(=O)NCCN1Cc1ccc2ccccc2c1)C1CCOCC1 (centres unmarked) | 12.1
25 | Cc1ccccc1NC(=O)NC1CCCc2ccccc21 (centres unmarked) | 12
26 | COc1ccc(OCC(=O)O/N=C(\N)Cc2cccs2)cc1 | 8.42
27 | N=c1c(C(=O)NCC2CCCO2)cc2c(=O)n3ccccc3nc2n1Cc1ccco1 (centres unmarked) | -83.1
28 | Oc1ccc(/C=N/n2c(-c3ccccc3)n[nH]c2=S)cc1 | 18
29 | COc1ccc([C@H]2CC(=O)C=C(c3ccc(C)cc3)C2)cc1OC | 3.84
30 | CCCCn1c(SCC(=O)Nc2ccccc2C(F)(F)F)nc2ccsc2c1=O | 7.44
31 | Clc1cccc(Cl)c1C[n+]1ccc2ccccc2c1.[Br-] | 14
32 | CC(C)(C)OC(=O)N1CCC[C@H]1c1nnc(SCc2ccc(Cl)cc2)o1 | 8.82
33 | COc1ccc(/C=N\NC(=O)c2cccc([N+](=O)[O-])c2)cc1Cn1cc([N+](=O)[O-])cn1 | 8.51
34 | COCCNC(=O)c1onc(CSc2ccc(C(C)C)cc2)c1C(=O)O | 7.61
35 | C=CCn1c(SCC(=O)Nc2cccc(C)c2)nnc1-c1cnccn1 | -3.12
36 | CCn1c(O)c(/C=N/NC(=O)c2ccccc2)c(=O)[nH]c1=S | 14.3
37 | NC(=O)Cn1nnc(-c2ccc(C(F)(F)F)cc2)n1 | 0.549
38 | COCCN(C(=O)Nc1ccccc1)C(C)c1cccnc1 (centres unmarked) | 15.8
39 | N#CC1(NC(=O)CSc2nnc(C3CC3)n2C2CC2)CCCCC1 | 5.6
40 | COc1ccc(OC)c(-c2csc(N(C)C(=O)c3ccco3)n2)c1 | 10.1
41 | Cc1ccc2[nH]c(C(=O)N/N=C/c3ccccc3C(=O)O)c(-c3ccccc3)c2c1 | 8.39
42 | Cc1nn(CCOc2cccc(Cl)c2)c(C)c1[N+](=O)[O-] | 14.4
43 | CC[C@H](NC(=O)c1c(C)c(-c2ccccc2)nc2ccccc12)c1ccccc1 | 18.2
44 | CC(=O)NCCc1c(C)n(Cc2ccccc2)c2ccccc12 | 5.79
45 | CN(C)S(=O)(=O)Nc1ccc(NS(=O)(=O)N(C)C)c(S(=O)(=O)c2ccccc2)c1 | 10.2
46 | N=c1c(S(=O)(=O)c2ccc(Cl)cc2)cc2c(=O)n3ccccc3nc2n1CCc1ccccc1 | 13.2

Row | SMILES | hERG current change (%, negative = inhibition) at 1uM [%]
47 | COc1ccc(CNC(=O)CCCC2=NS(=O)(=O)c3ccccc3N2)cc1 | 15.4
48 | COC(=O)CNC(=O)c1ccc(F)cc1 | 15.2
49 | COc1cc(NC(=O)CCCc2c[nH]c3ccccc23)cc(OC)c1 | 14.7
50 | O=C(Nc1ccc(-c2csc(Nc3cccc(C(F)(F)F)c3)n2)cc1)c1ccccc1 | 18.6
51 | CCCOC(=O)CC1C(=O)NCCN1Cc1ccc(F)cc1 (centres unmarked) | 6.19
52 | COc1ccc(-n2cnc3cc(C(=O)N4CCOCC4)ccc32)cc1 | 3.06
53 | COC(=O)c1ccc(CSc2nnc(N)s2)cc1 | 2.14
54 | Cc1cc(CCN2CCC(=O)NC2=S)ccc1OC(C)C | 0.0871
55 | Cc1cnc(C(=O)OCc2ccc(C#N)cc2)cn1 | 9.82
56 | Cc1cc(Br)cc(C)c1NC(=O)c1ccc(C#N)cc1F | -8.11
57 | Cc1ccc(/C=N/NC(=O)CSc2nc3ccccc3[nH]2)o1 | 13.6
58 | CC(NC(=S)Nc1ccc(F)cc1)C(c1cccs1)N1CCOCC1 (centres unmarked) | 4.9
59 | O=C(NC(=S)NNC(=O)c1ccccc1O)c1cccnc1 | 7.51
60 | O=C(NC1CCSc2ccccc21)c1cccc([N+](=O)[O-])c1 (centres unmarked) | -3.7
61 | Cc1ccnn1CC(=O)N/N=C/c1ccco1 | -3.49
62 | COc1ccccc1OCCCOc1c(Cl)cc(C)cc1Cl | 13.6
63 | O=C(O)CN1C(=O)/C(=C\c2cccc(OCc3ccc(Cl)cc3)c2)SC1=S | 15.8
64 | Cc1cccc(NC2=NCC(=O)N2Cc2cccs2)c1.Cl | 7.45
65 | O=c1c2ccccc2cnn1CCOc1ccccc1 | 9.47
66 | Cc1ccc(CS(=O)(=O)c2ncc(Cl)c(C(=O)Nc3ccc(OC(F)F)cc3)n2)cc1 | 5.25
67 | COc1ccc(N2CCN(CC(O)COC(c3ccccc3)c3ccccc3)CC2)cc1 (centres unmarked) | -14.2
68 | CCn1c(SCC(=O)NNC(=O)Cc2ccccc2)nnc1-c1ccccc1 | -14.4
69 | C=C(C)CN(CC)C(=O)CC1C(=O)NCCN1C (centres unmarked) | 13.7

Row | SMILES | hERG current change (%, negative = inhibition) at 1uM [%]
70 | CC(=O)Nc1ccc(NC(=O)c2c([N+](=O)[O-])c(C(C)(C)C)nn2C)cc1 | -3.29
71 | CC(=O)NC(CC(=O)O)c1ccc(F)cc1 (centres unmarked) | 8.16
72 | COc1ccc(Cl)cc1S(=O)(=O)N1CCC(C(=O)NC2CC2)CC1 | 10.3
73 | COc1ccc(S(=O)(=O)N2CCC(NC(=O)c3ccccc3)CC2)cc1 | 13.6
74 | COc1cc(C(=O)NCC(=O)N/N=C/c2c(C)[nH]c3ccccc23)cc(OC)c1OC | 10.2
75 | COC(=O)c1cccc(NC(=S)NCCC2=CCCCC2)c1 | 15
76 | CN(CCc1ccccn1)Cc1ccc(Cl)cc1Cl | -54.1
77 | COc1ccc(/C=N/N2CCN(C3c4ccccc4-c4ccccc43)CC2)cc1O | 6.65
78 | Cc1ccc(C)c(S(=O)(=O)NCc2ccc(C(=O)N3CCOCC3)cc2)c1 | -1.98
79 | Cc1ccc(C)c(N2CCN(c3cnn(-c4nc5ccccc5s4)c(=O)c3Cl)CC2)c1 | 6.23
80 | CC(C)Oc1ccc(OCCNC2CCCC2)cc1 | 6.21
81 | COc1ccc(NC(=O)N2CCNC(=O)C2CC(=O)Nc2ccc(F)cc2)cc1 (centres unmarked) | 9.9
82 | O=S(=O)(c1ccc(F)cc1)n1ccc(-c2cccc(OCc3c(F)cccc3Cl)c2)n1 | 3.43
83 | Cc1[nH]c2ccccc2c1C(=O)CSC(=S)N(C)C | 18.4
84 | C/C(=N\OCC(=O)OCC(=O)NCc1ccccc1)c1ccc2c(c1)OCO2 | 3.38
85 | Cc1ccc2nc(NC(=O)c3ccc(S(=O)(=O)N4CCCc5ccccc54)cc3)sc2c1 | 3.64
86 | O=C(COc1ccc2ccccc2c1)NNC(=O)c1ccc([N+](=O)[O-])cc1 | 1.81
87 | O=C(NNC(=O)c1ccc2ccccc2c1O)NC1CCCCC1 | 17.9
88 | CC(C)N(C(=O)CSc1ccc(S(=O)(=O)N2CCCCC2)cn1)c1ccccc1 | 8.32
89 | O=C(CCc1nc(-c2ccccc2)c(-c2ccccc2)o1)OCc1ccc(Br)cc1 | 13
